Results on 20 molecules are retold here after article PMC9911399, “Two distinct binding modes provide the RNA-binding protein RbFox with extraordinary sequence specificity”.

Residue numbers refer to the chain shown, from its start. This is one part of the list.

The chains are these.
T1: RBFOX1 RRM (Homo sapiens, UniProt Q9NWB1 109-208)
T1 sequence: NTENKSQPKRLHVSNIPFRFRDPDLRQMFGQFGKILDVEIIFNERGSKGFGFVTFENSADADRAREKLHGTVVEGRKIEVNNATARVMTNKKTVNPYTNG

B1: CCAGGCU (DNA:RNA)
RNA: GGGAGACCGGAAUUCAGAUUGUCCCCAGGCUUUAAAUCCCGUCGUAGCCACCA
DNA 1: CAATCTGAATTCCGGTCTCCC
DNA 2: TGGTGGCTACGACGGGATT
B2: GGUCGCG (DNA:RNA)
RNA: B1 RNA with C25G, C26G, A27U, G28C, U31G
DNA 1: CAATCTGAATTCCGGTCTCCC
DNA 2: TGGTGGCTACGACGGGATT
B3: CCUACGA (DNA:RNA)
RNA: B1 RNA with A27U, G28A, G29C, C30G, U31A
DNA 1: CAATCTGAATTCCGGTCTCCC
DNA 2: TGGTGGCTACGACGGGATT
B4: GUUGACC (DNA:RNA)
RNA: B1 RNA with C25G, C26U, A27U, G29A, U31C
DNA 1: CAATCTGAATTCCGGTCTCCC
DNA 2: TGGTGGCTACGACGGGATT
B5: CUUGUAG (DNA:RNA)
RNA: B1 RNA with C26U, A27U, G29U, C30A, U31G
DNA 1: CAATCTGAATTCCGGTCTCCC
DNA 2: TGGTGGCTACGACGGGATT
B6: CAACAUG (DNA:RNA)
RNA: B1 RNA with C26A, G28C, G29A, C30U, U31G
DNA 1: CAATCTGAATTCCGGTCTCCC
DNA 2: TGGTGGCTACGACGGGATT
B7: GUCUGCA (DNA:RNA)
RNA: B1 RNA with C25G, C26U, A27C, G28U, U31A
DNA 1: CAATCTGAATTCCGGTCTCCC
DNA 2: TGGTGGCTACGACGGGATT
B8: CGGCCAC (DNA:RNA)
RNA: B1 RNA with C26G, A27G, G28C, G29C, C30A, U31C
DNA 1: CAATCTGAATTCCGGTCTCCC
DNA 2: TGGTGGCTACGACGGGATT
B9: AACAUGG (DNA:RNA)
RNA: GGGAGACCGGAAUUCAGAUUGUCCAACAUGGUUAAAUCCCGUCGUAGCCACCA
DNA 1: CAATCTGAATTCCGGTCTCCC
DNA 2: TGGTGGCTACGACGGGATT
B10: AUCAUCU (DNA:RNA)
RNA: B9 RNA with A26U, G30C, G31U
DNA 1: CAATCTGAATTCCGGTCTCCC
DNA 2: TGGTGGCTACGACGGGATT
B11: UAUUACA (DNA:RNA)
RNA: B9 RNA with A25U, C27U, A28U, U29A, G30C, G31A
DNA 1: CAATCTGAATTCCGGTCTCCC
DNA 2: TGGTGGCTACGACGGGATT
B12: CGCUUAC (DNA:RNA)
RNA: B9 RNA with A25C, A26G, A28U, G30A, G31C
DNA 1: CAATCTGAATTCCGGTCTCCC
DNA 2: TGGTGGCTACGACGGGATT
B13: GAGCGGC (DNA:RNA)
RNA: B9 RNA with A25G, C27G, A28C, U29G, G31C
DNA 1: CAATCTGAATTCCGGTCTCCC
DNA 2: TGGTGGCTACGACGGGATT
B14: CCGCCGU (DNA:RNA)
RNA: B1 RNA with A27G, G28C, G29C, C30G
DNA 1: CAATCTGAATTCCGGTCTCCC
DNA 2: TGGTGGCTACGACGGGATT
B15: ACUAGUU (DNA:RNA)
RNA: B1 RNA with C25A, A27U, G28A, C30U
DNA 1: CAATCTGAATTCCGGTCTCCC
DNA 2: TGGTGGCTACGACGGGATT
B16: CUGCGGC (DNA:RNA)
RNA: B1 RNA with C26U, A27G, G28C, C30G, U31C
DNA 1: CAATCTGAATTCCGGTCTCCC
DNA 2: TGGTGGCTACGACGGGATT
B17: GAAAGUC (DNA:RNA)
RNA: B9 RNA with A25G, C27A, U29G, G30U, G31C
DNA 1: CAATCTGAATTCCGGTCTCCC
DNA 2: TGGTGGCTACGACGGGATT
B18: CUAGUUG (DNA:RNA)
RNA: B1 RNA with C26U, G29U, C30U, U31G
DNA 1: CAATCTGAATTCCGGTCTCCC
DNA 2: TGGTGGCTACGACGGGATT
B19: GUUCAGC (DNA:RNA)
RNA: B9 RNA with A25G, A26U, C27U, A28C, U29A, G31C
DNA 1: CAATCTGAATTCCGGTCTCCC
DNA 2: TGGTGGCTACGACGGGATT
B20: UCGUAUG (DNA:RNA)
RNA: B9 RNA with A25U, A26C, C27G, A28U, U29A, G30U
DNA 1: CAATCTGAATTCCGGTCTCCC
DNA 2: TGGTGGCTACGACGGGATT

The assay deals with T1, RBFOX1 RRM. Nature of the assay: EMSA; HiTS-Eq, 1 nM pool, 10 min; buffer printed only for the single-RNA assays: 10 mM Tris pH 7.5, 150 mM NaCl, 3.4 mM EDTA, 0.001% NP-40, 30 C. The following applies: tags: His6 N-terminal (pET28a); label: 5' 32P. A digest of the protocol: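 Purified RbFox RRM, wild type or mutant, was incubated for 10 min in 50 µL with 1 nM of a 5′-radiolabelled RNA pool carrying 7 randomized nucleotides, whose flanks were annealed to DNA oligonucleotides, over a series of increasing protein concentrations. Unbound RNA was resolved on 8% native PAGE, cut out, reverse-transcribed, barcoded by PCR and sequenced on an Illumina HiSeq 2500. Relative association constants were derived from changes in read counts for each RNA species versus the control reaction and normalised to the cognate motif.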
(Mobility shift assays separate free from complexed probe on a gel.)
As for B1, the binding signal is 0.00926 KA relative to UGCAUGU.

For B2, the binding signal was 0.0106 KA relative to UGCAUGU. Next, B3: 0.00267 KA relative to UGCAUGU; B4: 0.0139 KA relative to UGCAUGU; B5: 0.0111 KA relative to UGCAUGU. Consider B6, for which the binding signal was 0.00479 KA relative to UGCAUGU. In the case of B7, the binding signal was 0.0255 KA relative to UGCAUGU.

Regarding B8, the binding signal was 0.00887 KA relative to UGCAUGU.

In the case of B9, the binding signal is 0.00507 KA relative to UGCAUGU. In the case of B10, the binding signal is 0.00124 KA relative to UGCAUGU.

With B11, the binding signal was 0.0071 KA relative to UGCAUGU. B12: the binding signal was 0.00631 KA relative to UGCAUGU.

Consider B13, for which the binding signal was 0.0148 KA relative to UGCAUGU.

With B14, the binding signal was 0.00901 KA relative to UGCAUGU.

On to B15, for which the binding signal was 0.00854 KA relative to UGCAUGU. Next, B16: 0.0171 KA relative to UGCAUGU; B17: 0.00919 KA relative to UGCAUGU; B18: 0.0137 KA relative to UGCAUGU. With B19, the binding signal is 0.0147 KA relative to UGCAUGU.

As to B20, the binding signal is 0.0193 KA relative to UGCAUGU.
